# Whole data set: some 2,900 compounds, median “IRF Lucia reporter activity, fold change vs agonist alone” near 0.9, cut for the highest 2% near 2.8. The list shows a part of the results.
# Columns and labels:
# RAW-Dual [1] = assay: IRF Lucia reporter activity, fold change vs agonist alone; cytotoxicity flag (confluency mask): not cytotoxic; higher = enhanced IRF activity
# Procedure, shortened: (§1)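 Library stock was pin-tooled at 50 nL into 384-well plates of RAW-Dual macrophages (50,000 cells/well, DMEM), followed 1 h later by a PRR agonist, and the cells were kept at 37 °C, 5% CO2. Supernatant collected after 20 hours was read for IRF by QuantiLuc luminescence and for NF-κB by QuantiBlue absorbance at 620 nm. Reporter activity is fold change over agonist-alone wells, and a well counted as cytotoxic when its IncuCyte confluency was below 70% of agonist controls in both mask sets.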
# RAW-Dual [2] = assay: IRF Lucia reporter activity, fold change vs agonist alone; higher = enhanced IRF activity; conditions: cytotoxicity flag (confluency mask): not cytotoxic, agonist: MPLA (TLR4) […]
# Procedure, shortened: as §1
# [3] = agonist: 3'3'-cGAMP (STING) 10 ug/mL
# [4] = library stock concentration (final ~1000-fold dilution): 10 mM
smiles,measurement,setting,value
O=c1cc(-c2ccc(O)cc2)oc2c(C3OCC(O)C(O)C3O)c(O)c(C3OC(CO)C(O)C(O)C3O)c(O)c12 (stereo not given) (library stock concentration (final ~1000-fold dilution): 10 mM),IRF Lucia reporter activity,RAW-Dual [1]; [3],1.03
same,IRF Lucia reporter activity,RAW-Dual [1]; agonist: LPS (TLR4) 0.1 ug/mL,0.867
C=CC(=O)N1CCC(Oc2cc3c(Nc4ccc(Cl)c(Cl)c4F)ncnc3cc2OC)CC1,IRF Lucia reporter activity,RAW-Dual [2]; [4],0.127
C=CC(=O)N1CCC(Oc2cc3c(Nc4ccc(Cl)c(Cl)c4F)ncnc3cc2OC)CC1 (library stock concentration (final ~1000-fold dilution): 10 mM),IRF Lucia reporter activity,RAW-Dual [1]; [3],0.0242
same,IRF Lucia reporter activity,RAW-Dual [1]; agonist: LPS (TLR4) 0.1 ug/mL,0.101
CC(NC(=O)C(O)C(C)C)C(=O)NC1C(=O)N(C)CCc2ccccc21 (stereo not given) (library stock concentration (final ~1000-fold dilution): 10 mM),IRF Lucia reporter activity,RAW-Dual [1]; [3],1.16
same,IRF Lucia reporter activity,RAW-Dual [1]; agonist: LPS (TLR4) 0.1 ug/mL,0.9
CC(NC(=O)C(O)C(C)C)C(=O)NC1C(=O)N(C)CCc2ccccc21 (stereo not given),IRF Lucia reporter activity,RAW-Dual [2]; [4],1.06
NC(=O)c1noc(C(CCCC2CCCCC2)CC(=O)NO)n1 (stereo not given),IRF Lucia reporter activity,RAW-Dual [2]; [4],0.63
NC(=O)c1noc(C(CCCC2CCCCC2)CC(=O)NO)n1 (stereo not given) (library stock concentration (final ~1000-fold dilution): 10 mM),IRF Lucia reporter activity,RAW-Dual [1]; [3],0.0719
same,IRF Lucia reporter activity,RAW-Dual [1]; agonist: LPS (TLR4) 0.1 ug/mL,0.466
CN1CCc2nc(C(=O)NC3CC(C(=O)N(C)C)CCC3NC(=O)C(=O)Nc3ccc(Cl)cn3)sc2C1.Cc1ccc(S(=O)(=O)O)cc1.O (stereo not given),IRF Lucia reporter activity,RAW-Dual [2]; [4],0.993
CN1CCc2nc(C(=O)NC3CC(C(=O)N(C)C)CCC3NC(=O)C(=O)Nc3ccc(Cl)cn3)sc2C1.Cc1ccc(S(=O)(=O)O)cc1.O (stereo not given) (library stock concentration (final ~1000-fold dilution): 10 mM),IRF Lucia reporter activity,RAW-Dual [1]; [3],0.859
same,IRF Lucia reporter activity,RAW-Dual [1]; agonist: LPS (TLR4) 0.1 ug/mL,0.989
CN1CCN(C2=Nc3cc(Cl)ccc3Nc3ccccc32)CC1 (library stock concentration (final ~1000-fold dilution): 10 mM),IRF Lucia reporter activity,RAW-Dual [1]; [3],0.865
same,IRF Lucia reporter activity,RAW-Dual [1]; agonist: LPS (TLR4) 0.1 ug/mL,1.47
CN1CCN(C2=Nc3cc(Cl)ccc3Nc3ccccc32)CC1,IRF Lucia reporter activity,RAW-Dual [2]; [4],1.64
CCC(=O)OC(OP(=O)(CCCCc1ccccc1)CC(=O)N1CC(C2CCCCC2)CC1C(=O)O)C(C)C (stereo not given),IRF Lucia reporter activity,RAW-Dual [2]; library stock concentration (final ~1000-fold dilution): 10 mM water,1.41
CCC(=O)OC(OP(=O)(CCCCc1ccccc1)CC(=O)N1CC(C2CCCCC2)CC1C(=O)O)C(C)C (stereo not given) (library stock concentration (final ~1000-fold dilution): 10 mM water),IRF Lucia reporter activity,RAW-Dual [1]; [3],1.29
same,IRF Lucia reporter activity,RAW-Dual [1]; agonist: LPS (TLR4) 0.1 ug/mL,0.873
Cc1c(Cc2ccc3ccccc3n2)c2cc(F)ccc2n1CC(=O)O (library stock concentration (final ~1000-fold dilution): 10 mM),IRF Lucia reporter activity,RAW-Dual [1]; [3],1.07
same,IRF Lucia reporter activity,RAW-Dual [1]; agonist: LPS (TLR4) 0.1 ug/mL,1.03
Cc1c(Cc2ccc3ccccc3n2)c2cc(F)ccc2n1CC(=O)O,IRF Lucia reporter activity,RAW-Dual [2]; [4],1.05
COc1ccc(-c2coc3cc(O)ccc3c2=O)cc1S(=O)(=O)O (library stock concentration (final ~1000-fold dilution): 10 mM),IRF Lucia reporter activity,RAW-Dual [1]; [3],0.98
same,IRF Lucia reporter activity,RAW-Dual [1]; agonist: LPS (TLR4) 0.1 ug/mL,1.22
C/C=C(/C)C(=O)OC1c2c(ccc3ccc(=O)oc23)OC(C)(C)C1OC(=O)/C(C)=C\C (stereo not given) (library stock concentration (final ~1000-fold dilution): 10 mM),IRF Lucia reporter activity,RAW-Dual [1]; [3],1.31
same,IRF Lucia reporter activity,RAW-Dual [1]; agonist: LPS (TLR4) 0.1 ug/mL,0.143
C[C@@H]1O[C@@H](O[C@H]2C(=O)c3c(O)cc(O)cc3O[C@@H]2c2ccc(O)cc2)[C@H](O)[C@H](O)[C@H]1O (library stock concentration (final ~1000-fold dilution): 10 mM),IRF Lucia reporter activity,RAW-Dual [1]; [3],0.228
same,IRF Lucia reporter activity,RAW-Dual [1]; agonist: LPS (TLR4) 0.1 ug/mL,1.17
O=C1NC(=O)/C(=C/c2ccc3c(c2)OC(F)(F)O3)S1 (library stock concentration (final ~1000-fold dilution): 10 mM),IRF Lucia reporter activity,RAW-Dual [1]; [3],0.97
same,IRF Lucia reporter activity,RAW-Dual [1]; agonist: LPS (TLR4) 0.1 ug/mL,1.19
O=C1NC(=O)/C(=C/c2ccc3c(c2)OC(F)(F)O3)S1,IRF Lucia reporter activity,RAW-Dual [2]; [4],1.03
CNC1(C)C2CCC(C2)C1(C)C.Cl (stereo not given) (library stock concentration (final ~1000-fold dilution): 10 mM),IRF Lucia reporter activity,RAW-Dual [1]; [3],0.982
same,IRF Lucia reporter activity,RAW-Dual [1]; agonist: LPS (TLR4) 0.1 ug/mL,1.28
Br.Cc1ccc(-c2cn3c4c(sc3n2)CCCC4)cc1,IRF Lucia reporter activity,RAW-Dual [2]; [4],1.06
Br.Cc1ccc(-c2cn3c4c(sc3n2)CCCC4)cc1 (library stock concentration (final ~1000-fold dilution): 10 mM),IRF Lucia reporter activity,RAW-Dual [1]; [3],0.958
same,IRF Lucia reporter activity,RAW-Dual [1]; agonist: LPS (TLR4) 0.1 ug/mL,0.971
Nc1ccc(C(=O)Nc2cccc(-c3nc(N4CCOCC4)c4oc5ncccc5c4n3)c2)cn1,IRF Lucia reporter activity,RAW-Dual [2]; [4],3.52
Nc1ccc(C(=O)Nc2cccc(-c3nc(N4CCOCC4)c4oc5ncccc5c4n3)c2)cn1 (library stock concentration (final ~1000-fold dilution): 10 mM),IRF Lucia reporter activity,RAW-Dual [1]; [3],0.205
same,IRF Lucia reporter activity,RAW-Dual [1]; agonist: LPS (TLR4) 0.1 ug/mL,3.93
CCOC(=O)C(CCc1ccccc1)NC(C)C(=O)N1CCCC1C(=O)O.O=C(O)/C=C\C(=O)O (stereo not given),IRF Lucia reporter activity,RAW-Dual [2]; [4],0.969
CCOC(=O)C(CCc1ccccc1)NC(C)C(=O)N1CCCC1C(=O)O.O=C(O)/C=C\C(=O)O (stereo not given) (library stock concentration (final ~1000-fold dilution): 10 mM),IRF Lucia reporter activity,RAW-Dual [1]; [3],1.02
same,IRF Lucia reporter activity,RAW-Dual [1]; agonist: LPS (TLR4) 0.1 ug/mL,0.873
CN(C)CCCN1c2ccccc2Sc2ccc(Cl)cc21 (library stock concentration (final ~1000-fold dilution): 10 mM),IRF Lucia reporter activity,RAW-Dual [1]; [3],0.984
same,IRF Lucia reporter activity,RAW-Dual [1]; agonist: LPS (TLR4) 0.1 ug/mL,1.85
CN(C)CCCN1c2ccccc2Sc2ccc(Cl)cc21,IRF Lucia reporter activity,RAW-Dual [2]; [4],2.13
Cc1ccc(NC(=O)c2ccnc(C(F)(F)F)c2)cc1-c1cc(OCCO)nc(N2CCOCC2)c1 (library stock concentration (final ~1000-fold dilution): 10 mM),IRF Lucia reporter activity,RAW-Dual [1]; [3],0.359
same,IRF Lucia reporter activity,RAW-Dual [1]; agonist: LPS (TLR4) 0.1 ug/mL,0.647
Nc1ncnc2c1ncn2C1CCCO1 (stereo not given) (library stock concentration (final ~1000-fold dilution): 10 mM),IRF Lucia reporter activity,RAW-Dual [1]; [3],0.881
same,IRF Lucia reporter activity,RAW-Dual [1]; agonist: LPS (TLR4) 0.1 ug/mL,1.97
CC1CC(C(=O)O)C2CCC3(C)C(=CCC4C5(C)CCC(O)C(C)(C)C5CCC43C)C2C1C (stereo not given),IRF Lucia reporter activity,RAW-Dual [2]; [4],1.06
CC1CC(C(=O)O)C2CCC3(C)C(=CCC4C5(C)CCC(O)C(C)(C)C5CCC43C)C2C1C (stereo not given) (library stock concentration (final ~1000-fold dilution): 10 mM),IRF Lucia reporter activity,RAW-Dual [1]; [3],0.973
same,IRF Lucia reporter activity,RAW-Dual [1]; agonist: LPS (TLR4) 0.1 ug/mL,1.12
CNCCN(C)Cc1c[nH]nc1-c1ccc(OC2CC(OCCC3CCOCC3)C2)cc1.Cl.Cl (stereo not given) (library stock concentration (final ~1000-fold dilution): 10 mM),IRF Lucia reporter activity,RAW-Dual [1]; [3],0.626
same,IRF Lucia reporter activity,RAW-Dual [1]; agonist: LPS (TLR4) 0.1 ug/mL,0.946

# — the supplement of paper PMC10037445
